Test results: PubChem BioAssay AID493208 (National Center for Advancing Translational Sciences (NCATS), 2011)
In all, about 44,000 compounds went through this assay and about 340 (0.77%) were called active. Inconclusive results (about 5%) are left out. Calls follow the shape of the dose curve; as a rule, active = well fitted inhibition curve with a large enough effect; inconclusive = small, poorly fitted or top-dose-only effect; inactive = flat fitted curve, though single readings scatter. The list shows a part of the results.

Experiment: Acumen qHTS Assay for Inhibitors of the mTORC1 Signaling Pathway in MEF (Tsc2-/-, p53-/-) Cells: Sytravon;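 also: plate controls were DMSO for no effect and rapamycin for full effect; nearly all actives have a fitted effect of over 50% in size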
Conditions: phospho-rpS6 immunofluorescence/PI, 24 h; series mostly up to 38.3 µM; activity change, negative = inhibition: at the top concentration
Method in brief: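 Read-out: phospho-S6 Alexa-488 intensity over PI intensity per well, scored as % active cells using thresholds from rapamycin (7.5 nM) and DMSO controls. Tsc2-/-, p53-/- MEFs exposed to compound for 24 h; PI cell count recorded as viability.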

Activity change, negative = inhibition, inactive:
COc1ccc(-c2nc(CS(=O)(=O)CC(=O)NCc3ccccc3Br)c(C)o2)cc1 0.879%
O=C(NCCCN1CCCCCC1)c1ccc2c(c1)sc1nc(-c3ccccc3)cn12 -4.56%
Cc1ccc(CNC(=O)CCCn2c(=O)c3ccccc3n(CC(=O)Nc3ccc(C)cc3)c2=O)cc1 8.41%
CCC(C(=O)Nc1ccc(C)c(C)c1)n1c(=O)c(C(F)(F)F)nc2ccccc21 (configuration not stated) 3.08%
CCOc1ccc(NC(=O)CCc2c(C)nn(-c3ccc(N4CCCC4)nn3)c2C)cc1 -5.99%
CCOC(=O)c1c(NC(=O)COc2ccc(Cl)cc2C)sc2c1CCCCC2 -11.6%
Cc1ccc(CNC(=O)CS(=O)(=O)c2cccc3nsnc23)cc1 -2.69%
COc1cccc(NC(=O)Cn2c(=O)n(CCC(=O)NCCc3ccc(Cl)cc3)c(=O)c3ccccc32)c1 0.0691%
COc1ccc(CCNC(=O)Cc2c(C)c3cc4c(C(C)(C)C)coc4c(C)c3oc2=O)cc1 2%
COc1cc(-c2noc(-c3ccc(NCC4CCCO4)c([N+](=O)[O-])c3)n2)cc(OC)c1OC (configuration not stated) -9.03%
Cc1ccc(CNC(=O)c2cc3c(=O)n(Cc4ccco4)ccc3nc2C)cc1 -0.571%
COc1ccc(NC(=O)CC2C(=O)N(c3ccc(OC)cc3)C(=O)N2CCC2=CCCCC2)cc1 (configuration not stated) -6.57%
Cc1ccc(C)c(Nc2cc(C(=O)NC3CCCC3)c3ccccc3n2)c1 9.52%
COc1cc(NC(=O)CSc2nc3ncccc3o2)cc(OC)c1 -2.67%
COc1cc(NC(=O)CN2CCN(c3ccc(F)cc3)CC2)cc(OC)c1 3.69%
Cc1ccc(NC(=O)CCc2c(C)nc3c(-c4ccc(F)cc4)c(C)nn3c2C)cc1F -1.74%
Cc1ccc2oc(-c3ccc(NC(=O)CCC(=O)O)cc3)nc2c1 -14.1%
CCn1cc2nc(SCC(=O)Nc3cc(OC)cc(OC)c3)n(Cc3ccc(Cl)cc3)c(=O)c2n1 -0.979%
O=C(/C=C/c1ccccc1Cl)N1CCC(c2nc3ccccc3o2)CC1 -8.23%
CCOc1ccc(NC(=O)c2sc3nc4n(c(=O)c3c2C)CCC4)cc1 1.41%
COC(=O)N1CCCc2cc(S(=O)(=O)NCc3ccccc3)ccc21 -19.5%
Cc1cccc(C)c1NC(=O)c1ccc2c(c1)nnn2C1CCCC1 -23.2%
CCOc1cc(-c2ccc(OC(=O)c3ccccc3Cl)c(OC)c2)cc(=O)c2c(C)oc(C)c12 -5.44%
COc1ccc(-c2nn3c(=O)cc(CN4CCN(C(=O)/C=C/c5ccccc5)CC4)nc3s2)cc1 -0.923%
COc1ccc(C2CC(=O)Nc3c2c(=O)[nH]c2nc4ccccc4n32)cc1 (configuration not stated) 0.616%
Cc1cc(C)cc(NC(=O)CSc2nc3c(c(=O)[nH]2)CN(Cc2ccc(F)cc2)CC3)c1 1.05%
CCn1cc(C(=O)Nc2cccc(Cl)c2)c2cc(OC)c(OC)cc2c1=O 0.622%
CCCCN(CC)CCNC(=O)C1CCN(S(=O)(=O)c2cccc3nsnc23)CC1 0.657%
CCNC(=O)c1ccc(NC(=O)N2CCCCc3ccccc32)cc1 -11%
Cc1ccccc1COC(=O)c1nn(-c2ccccc2)nc1N 0.949%
COc1ccccc1N1CCN(C(=O)Cn2c(=O)n3nc(-c4cccc(F)c4)nc3c3ccccc32)CC1 -9.43%
CCc1nn(CC(=O)N2CCN(c3ccc(OC)cc3)CC2)c(=O)c2cc3sccc3n12 -3.09%
CC(CCc1ccccc1)NC(=O)Cn1ncc2c3ccccc3n(Cc3ccccc3F)c2c1=O (configuration not stated) -0.279%
COc1ccc(-c2cnc(C)o2)cc1S(=O)(=O)Nc1ccc(NC(C)=O)cc1 12.5%
CCC(=O)C1=C(c2ccc(F)cc2)N(C(=O)CC)n2c(nnc2-c2ccc(OC)cc2)S1 -0.442%
O=C(CSc1nccn1-c1cccc(Cl)c1)Nc1ccc2c(c1)OCO2 -5.54%
CCN(C(=O)C1CCN(S(=O)(=O)c2cc(Br)cc3c2N(C(C)=O)CC3)CC1)c1cccc(C)c1 3.34%
Cn1c(=O)oc2cc(S(=O)(=O)CCC(=O)N3CCN(c4ccccc4F)CC3)ccc21 -14.7%
O=C(CCn1c(=O)c2cccn2c2cccnc21)N1CCN(c2ccccc2)CC1 -4.48%
Cc1ccc(-c2cc(C(=O)Oc3ccc(C#N)cc3)no2)cc1 -0.506%
CCn1c(SCC(=O)Nc2ccccc2C(=O)OC)nc2ccsc2c1=O -7.51%
CCC(=O)NNc1ncnc2c1cnn2-c1ccc(C)c(Cl)c1 13.7%
CCN(Cc1ccccc1)C(=O)Cn1c(=O)n(-c2ccccc2)c(=O)c2c1c1cc(C)ccc1n2C 2.91%
Cc1nc2ccccc2c(=O)n1-c1ccc(NC(=O)c2ccccc2[N+](=O)[O-])cc1 -0.438%
O=C(CSc1nc(=O)[nH]c2c1CCC2)NCc1ccccc1Cl 2.52%
CCc1ccc(CSc2nc(-c3ccccc3F)nc3c2Cc2c(CO)cnc(C)c2O3)cc1 4.53%
COc1ccc(OC(=O)c2nc(SCc3ccccc3F)ncc2Cl)cc1 1.4%
Cc1ccc(NC(=O)Cn2c(=O)n(Cc3ccco3)c(=O)c3oc4ccccc4c32)cc1C -9.42%
CCC(C)NC(=O)c1nn(-c2ccc(C)cc2)nc1CO (configuration not stated) 1.58%
O=C(Nc1ccc2nc(SCC(=O)N3CCOCC3)sc2c1)c1cccc(Br)c1 -9.89%
CC(C)(C)c1ccc(C(=O)NCC(c2cccnc2)N2CCc3ccccc3C2)cc1 (configuration not stated) -14.4%
Cc1cccc(CNC(=O)C2CCC(CNS(=O)(=O)c3ccc4c(c3)CCCC(=O)N4)CC2)c1 (configuration not stated) -5.06%
NS(=O)(=O)c1ccc(NC(=O)CSc2ccc3ccccc3n2)cc1 -14.6%
Cc1ccc(S(=O)(=O)c2cn(CC(=O)Nc3cccc(C)c3)c3cc4c(cc3c2=O)OCO4)cc1 -3.71%
Cc1ccc(CNS(=O)(=O)c2cc3c(cc2Cl)NC(=O)CO3)o1 0%
CC1CCC(C(=O)NC(C(=O)OCC(=O)c2ccc(Br)cc2)C(C)C)CC1 (configuration not stated) -4%
CCC(CC)C(=O)Nc1cc(-c2ccccc2F)nn1-c1ccccc1 5.01%
Cc1ccc(/C=C/c2onc(C)c2S(=O)(=O)N2CCC(C(=O)Nc3ccc(Br)c(C)c3)CC2)cc1 -8.21%
CNS(=O)(=O)c1cn(CC(=O)Nc2ccc(OC)cc2OC)cc1S(=O)(=O)NC -13.9%
Cc1ccccc1/C=C(\C#N)c1nc(-c2ccc(Cl)cc2)cs1 6.91%
Cc1csc2nc(-c3ccc(NS(=O)(=O)c4cc(F)ccc4F)cc3)cn12 3.8%
CN(C(=O)c1ccc2c(Cl)c3c(nc2c1)CCC3)c1ccccc1F 0.368%
COc1ccc(CCN2C(=O)CN(C3CCCCCC3)C(=O)C2c2ccc(OC(C)C)c(OC)c2)cc1OC (configuration not stated) 0.562%
Cc1ccc(CNC(=O)c2nnc(Cc3ccc(Cl)cc3)o2)cc1 -0.369%
CCN(CC)C(=O)Cn1c(=O)n(-c2ccccc2)c(=O)c2c3c(sc21)CCC3 -0.487%
COc1ccccc1C(=O)Nc1ccc(C(=O)OCc2cc(=O)n3nc(C)sc3n2)cc1 14.1%
Cc1c(Cl)cccc1Nc1nc2ccc(C(=O)c3ccccc3)cc2n2cnnc12 -1.56%
Cc1ccc(NC(=O)Cn2c(-c3cncs3)nc3ccccc32)c(Br)c1 2.72%
Cc1ccc(CNC(=O)CN2C(=O)C3(SCC(=O)N3c3ccc(F)cc3)c3ccccc32)cc1 (configuration not stated) -2.12%
CC(=O)N1CCc2c(sc3c2c(=O)n(Cc2ccccc2)c(=O)n3Cc2cc(C)ccc2C)C1 2%
COc1ccc2c(c1)Cc1sc(NC(=O)c3cccc(Br)c3)nc1-2 3.39%
CC1CN(C(=O)N2CCC(C(=O)NCCCc3ccccc3)CC2)c2ccccc2O1 (configuration not stated) 9.36%
CCOc1ccc(Nc2oc(/C=C/c3cccc(OC)c3)nc2C#N)cc1 -4.79%
CCCCCn1c(CCNC(=O)c2cccc(C)c2)nc2ccccc21 -19.4%
COc1ccc(CNC(=O)CCc2nc(-c3ccc(OC)cc3)no2)cc1 -9.19%
CCc1ccc(CNC(=O)C2CCCN(S(=O)(=O)c3ccc4c(ccn4C)c3)C2)cc1 (configuration not stated) -6.47%
CCSc1nc2c([nH]c3ccccc32)c(=O)n1-c1ccc(F)cc1 -9.89%
Cc1cc(C)c2c(n1)sc1c(=O)n(-c3ccccc3C(F)(F)F)nnc12 1.2%
CCC(=O)N1CCc2cc(CNS(=O)(=O)c3cccs3)ccc21 4.76%
Cc1ccc(OCCSc2nc3ccc(NC(=O)c4ccc(F)cc4)cc3s2)cc1 0.41%
CCOC(=O)C(CC)Sc1c(CC)cnc2c1c(=O)n(C)c(=O)n2C (configuration not stated) -4.8%
Cc1cccc(C(C)C)c1NC(=O)C(NS(=O)(=O)c1cccc2nsnc12)c1ccccc1 (configuration not stated) 1.92%
Cc1ccc(Cc2cn3cc(-c4ccc(F)cc4)nc3s2)cc1 1.1%
COc1ccc(-c2c(C)c3ccc(O)c(CN4CCCC4)c3oc2=O)cc1OC -2.01%
COc1cccc(-c2cn3ncsc3n2)c1 -10.3%
Cc1ccccc1CSc1ccc(-c2cccs2)nn1 -18%
COc1ccc(OCc2nc(-c3ccc(-n4cccc4)cc3)no2)cc1 1.6%
Cc1cc(C)n(-c2nc(C)c(C)c(=O)n2CC(=O)Nc2ccc(OC(F)(F)F)cc2)n1 -0.333%
Cc1cccc(NC(=O)c2cc(S(=O)(=O)N3CCCCCC3)cn2C)c1C -4.13%
Cc1ccc(NC(=O)Cn2cc(C(=O)C3CC3)c3ccccc32)cc1C 2.63%
Cc1ccc(CNC(=O)c2ccc(Cn3c(=O)c4ccccc4n(CC(=O)Nc4c(C)cc(C)cc4C)c3=O)cc2)cc1 0.977%
O=C(NCC(c1cccs1)S(=O)(=O)c1cccs1)c1cccc(F)c1 (configuration not stated) -5.77%
c1cnc(N2CCN(c3ncc4c(n3)CCNC4)CC2)nc1 2.97%
COc1ccc(OC)c(-n2nnc(-c3nc(-c4cc(OC)c(OC)c(OC)c4)no3)c2C)c1 -3.66%
O=c1oc2c3c(ccc2c2ccccc12)OCN(Cc1ccc(Cl)cc1)C3 1.23%
COc1ccc(-c2nc3ccccc3n3c(-c4ccccc4)c4c(=O)n(C)c(=O)n(C)c4c23)cc1OC -1.42%
CN1C(=O)c2ccccc2Sc2ccc(NC(=O)N3CCN(c4ccccc4)CC3)cc21 -10%
